# Where two headings read alike, the source gives them in different places.
# Experiments:
# S. aureus USA100 (MRSA) [1] = assay: Antibiotic repotentiation (antibiotic MIC with/without compound); type: cell-based, Staphylococcus aureus; settings: +50 μM compound
# Experimental: (§1) The overnight culture was diluted into fresh CAMHB to a concentration of 5×10^5 CFU/ml. […] On the same plate, a standard microdilution MIC with the tested antibiotics and no added compound was also performed to compare the antibiotic MIC in the presence and absence of compound. […] Fold reductions were calculated by dividing the MIC of the antibiotic without compound by the MIC of the antibiotic in the presence of compound.
# [2] = test system: S. aureus NR-49120 (VRSA); assay: as above; type: cell-based, Staphylococcus aureus; settings: +50 μM compound
# Experimental: as §1
# [3] = test system: S. aureus ATCC 43300 (MRSA); assay: Minimum inhibitory concentration, broth microdilution; type: cell-based; settings: Staphylococcus aureus, 18 h
# Experimental: (§2) The compounds were then analyzed for antibiotic repotentiation activity. […] The tested strains included USA300, which is a common and particularly virulent strain of community-acquired MRSA.
# S. aureus ATCC 29213 [4] = assay: as above; type: cell-based; settings: Staphylococcus aureus, ATCC29213, 18 h
# Experimental: as §2
# S. aureus USA300 (MRSA) [5] = assay: as above; type: cell-based; settings: Staphylococcus aureus, 18 h
# Experimental: as §2
# [6] = test system: various S. aureus strains; assay: microbe, parasite or virus in culture; settings: Staphylococcus aureus, read-out: MICs
# [7] = test system: S. aureus NR-49120 (VRSA); assay: microbe, parasite or virus in culture; settings: Staphylococcus aureus, 18 h
# S. aureus USA300 (MRSA) [8] = assay: Antibiotic repotentiation (antibiotic MIC with/without compound); type: cell-based, Staphylococcus aureus; settings: for Fold Reduction: oxacillin MIC
# Experimental: as §1, §2
# S. aureus 43300 (MRSA) = assay: as above; type: cell-based, Staphylococcus aureus; settings: for Fold Reduction: oxacillin MIC, S. aureus 43300 (MRSA)
# Experimental: as §1, §2
# S. aureus USA100 (MRSA) [9] = assay: microbe, parasite or virus in culture; type: cell-based; settings: Staphylococcus aureus, 18 h
# MRSA 43300 biofilm = assay: Biofilm inhibition, crystal violet assay; type: cell-based; settings: Staphylococcus aureus, 30 h, read-out: Biofilm inhibition IC50
# Experimental: A standard static crystal violet assay was used to quantify biofilm inhibition.^45 Cultures of S. aureus or S. epidermidis were grown overnight in TSBG (tryptic soy broth with 5% glucose) at 37° C. with shaking. These cultures were used to inoculate fresh TSBG to a calculated optical density of 0.01 at 600 nm (OD600). […] Untreated aliquots were used as a positive control and water served as a negative control. 100 μl of these suspensions were added to the wells of a 96-well polyvinylchloride microtiter plate. […] After incubation, media was discarded and the plates were washed with water to remove non-adherent cells. Adherent biofilms were stained with 110 μl of crystal violet (0.1% in water) and incubated at room temperature for thirty minutes. […] Absorbance at 540 nm was recorded using a BioTek Synergy H1 microplate reader. The absorbance of the negative control lanes was subtracted from the experimental values to account for background staining. Percent inhibition was calculated by comparison of the absorbance values of control versus treated wells under identical conditions.
# Antibiotic resistance and biofilm formation share similar regulatory mechanisms. […] Biofilm inhibition was first assessed in S. aureus 43300, a methicillin-resistant strain (see Table 18). […] The standard deviation is calculated from at least 3 independent experiments.
# [10] = test system: S. epidermidis ATCC 49461 biofilm; assay: Biofilm inhibition, crystal violet assay; type: cell-based; settings: Staphylococcus epidermidis, ATCC49461, 30 h, read-out: Inhibition of biofilm formation IC50
# Experimental: A standard static crystal violet assay was used to quantify biofilm inhibition.^45 Cultures of S. aureus or S. epidermidis were grown overnight in TSBG (tryptic soy broth with 5% glucose) at 37° C. with shaking. These cultures were used to inoculate fresh TSBG to a calculated optical density of 0.01 at 600 nm (OD600). […] Untreated aliquots were used as a positive control and water served as a negative control. 100 μl of these suspensions were added to the wells of a 96-well polyvinylchloride microtiter plate. […] After incubation, media was discarded and the plates were washed with water to remove non-adherent cells. Adherent biofilms were stained with 110 μl of crystal violet (0.1% in water) and incubated at room temperature for thirty minutes. The crystal violet staining solution was discarded and plates were washed with water to remove excess stain. The resulting stained biofilms were solubilized with 200 μL of 95% ethanol for 10 minutes. 125 μl of the ethanol solutions were transferred to a clear polystyrene microtiter plate for evaluation. Absorbance at 540 nm was recorded using a BioTek Synergy H1 microplate reader. The absorbance of the negative control lanes was subtracted from the experimental values to account for background staining. Percent inhibition was calculated by comparison of the absorbance values of control versus treated wells under identical conditions.
# S. epidermidis 49461 = assay: Antibiotic repotentiation (oxacillin MIC with/without compound); type: cell-based, Staphylococcus epidermidis; settings: +75 μM compound
# Experimental: as §1
# Antibiotic potentiation in S. epidermidis was also investigated.
# S. aureus ATCC 29213 [11] = assay: Antibiotic repotentiation (antibiotic MIC with/without compound); type: cell-based, Staphylococcus aureus; settings: oxacillin MIC
# Experimental: as §1, §2
# [12] = +50 μM compound, S. aureus USA300 (MRSA)
smiles,measurement,setting,value
Clc1ccc2c(c1)CCc1cccnc1C2=C1CCNCC1 [Desloratadine],Oxacillin MIC,S. aureus USA100 (MRSA) [1],256 µg/mL
same,Fold Reduction,S. aureus USA100 (MRSA) [1]; oxacillin MIC,1
same,Oxacillin MIC,[2],128 µg/mL
same,Fold Reduction,[2]; oxacillin MIC,1
same,MIC,[3],> 200 µM
same,MIC,S. aureus ATCC 29213 [4],> 200 µM
same,MIC,S. aureus USA300 (MRSA) [5],> 200 µM
same,MIC,[6],> 200 µM
same,MIC,[7],> 200 µM
same,Oxacillin MIC,S. aureus USA300 (MRSA) [8]; [12],32 µg/mL
same,Fold Reduction,S. aureus USA300 (MRSA) [8]; [12],1
same,Oxacillin MIC,"S. aureus 43300 (MRSA); +50 μM compound, S. aureus ATCC 43300 (MRSA)",16 µg/mL
same,Fold Reduction,S. aureus 43300 (MRSA); +50 μM compound,2
same,MIC,S. aureus USA100 (MRSA) [9],> 200 µM
same,IC50,MRSA 43300 biofilm,> 200 µM
"Clc1ccc2c(c1)C(N1CCNCC1)=Nc1ccccc1O2 [Amoxapine, 2-chloro-11-(1-piperazinyl)dibenz[b,f][1,4]oxazepine]",IC50,[10],156 µM
same,Fold Reduction,S. epidermidis 49461,4
same,Fold Reduction,S. aureus ATCC 29213 [11]; +75 μM compound,1
same,Fold Reduction,S. aureus ATCC 29213 [11]; +150 μM compound,2
same,Fold Reduction,"S. aureus USA300 (MRSA) [8]; +75 μM compound, USA300 (MRSA)",2
same,Fold Reduction,"S. aureus USA300 (MRSA) [8]; +150 μM compound, USA300 (MRSA)",16
same,Fold Reduction,S. aureus 43300 (MRSA); +75 μM compound,4
same,Fold Reduction,S. aureus 43300 (MRSA); +150 μM compound,16
same,IC50,"MRSA 43300 biofilm; MRSA 43300, crystal violet",333 µM
"CN1CCN(C2=Nc3cc(Cl)ccc3Nc3ccccc32)CC1 [Clozapine, 8-chloro-11-(4-methyl-1-piperazinyl)-5H-dibenzo[b,e][1,4]diazepine]",IC50,[10],149 µM
same,Fold Reduction,S. epidermidis 49461,1
same,Fold Reduction,S. aureus 43300 (MRSA); +75 μM compound,1
same,Fold Reduction,S. aureus 43300 (MRSA); +150 μM compound,8

# Source: US12115208B2, “Small-molecule adjuvants for antibiotics to address antibiotic resistance” (HIGH POINT UNIVERSITY, priority 2017, dated 2024)
